Where a chain is given by its changes, count along the chain named. Some of the results follow.
T1: UNK ZnF1-3 (human, UniProt Q9C0B0 31-174)
T1 sequence: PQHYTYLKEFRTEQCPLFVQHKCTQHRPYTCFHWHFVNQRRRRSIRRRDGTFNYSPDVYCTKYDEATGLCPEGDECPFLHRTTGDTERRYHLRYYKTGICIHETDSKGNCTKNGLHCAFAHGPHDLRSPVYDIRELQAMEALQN

B1: 125021761_125021881_2370_CDS_ENSMUSG00000014444_ENSMUST00000067252|mouse|control|control (ssRNA)
RNA: GGGAGUUCUACAGUCCGACGAUCGAGCUGCAUGAACGGUCUGUGGAAGUAGUGCAGCUGCAGGAUGCAGGCCAGCAGGAAGAAGCCAGGGAUGAGGAUACUGGAAAAGAGCUCCGACACACUGAACUGCUCCAGGCCCAGGUCCAACAGAGGAUUGAGCAUCA
B2: chr9:58722913:58722914:-_ENSMUSG00000032340_ENSMUST00000068664|mus_mus|FALSE|FALSE (ssRNA)
RNA: GGGAGUUCUACAGUCCGACGAUCGCGACAUACACGUUUGCUCCACACCCACUGGAAGGAAGCUGCUAGGCCCCAGCUCAACUAGGACACGACAAGACACACAAUGGUUUAGUUUCCAGAGUCACAGGAAAAUAUAAGACAUAUCAACAGAGGAUUGAGCAUCA
B3: chr1:231413285:231413286:+_ENSG00000116906_ENST00000366647|hu_mus|FALSE|FALSE (ssRNA)
RNA: GGGAGUUCUACAGUCCGACGAUCUUUGUGGCAGAGUAAGUCCUUUGUGACUGUCACUAUGGAACUGUGUUUUCUACAACUGCUCCAUUAUUGUUAUAGUUUUGCAGUGGCUGGUUUUCCUAUUGGCUUCUUACAUCCGAGCAUCAACAGAGGAUUGAGCAUCA
B4: 154753136_154754442_220_CDS_ENSMUSG00000053870_ENSMUST00000066568|mouse|control|control (ssRNA)
RNA: GGGAGUUCUACAGUCCGACGAUCCUCAAGGGAACAAAGUGUUGAUCCUCCAUUUCCAAUUUUGGUCCCAGCAGGAUCUGGAAAAACAUGGUAUUGAACUCCAAGAGGCAAUUCCCUUUUCUUCAGCUUCUCGGACAACUGUUGCAACAGAGGAUUGAGCAUCA
B5: 53626799_53626919_133_5pUTR_ENSG00000023287_ENST00000025008|human|control|control (ssRNA)
RNA: GGGAGUUCUACAGUCCGACGAUCACUCUAGGAGGCAGGGAGGGGUCCGGGCGGACAAGGACGCGAGCAGGCCCCUCGGCUCUGGGUCUGGGGCCGGGGGACAGAAGGCCGCGGCCUGUCAGAGCCGAGGGGCCCAGGCGACUGCAACAGAGGAUUGAGCAUCA
B6: chr10:127900053:127900054:+_ENSMUSG00000025369_ENSMUST00000099131|mus_mus|FALSE|FALSE (ssRNA)
RNA: GGGAGUUCUACAGUCCGACGAUCACUCUUGAAUUUGUAGGCAGCUGCAAGAAUAUGGCAGAGGGAUCCUCCUGCUUUGAAAUCUAGGAAACAUUUGAUCGGCAGUUUAGUAAGCGGUGCGUUGCUGACAUGUUUGCCAAAAACCAACAGAGGAUUGAGCAUCA
B7: chr2:157385914:157385915:+_ENSMUSG00000067786_ENSMUST00000109526|mus_hu|FALSE|FALSE (ssRNA)
RNA: GGGAGUUCUACAGUCCGACGAUCCAGCCGAUGAUGAGCAGUUCAGCCGAGGCCGCCGCCACUGCCGCCAUGGUUCCAAGAAUGGUAGGUGGGUGGUCGAGAAAGAGGGUUUGCCGAGAUCCGCUGGUCUCGGAGUCCGCUGUUCAACAGAGGAUUGAGCAUCA
B8: chr8:41682716:41682717:-_ENSMUSG00000039431_ENSMUST00000048898|mus_mus|motif|central (ssRNA)
RNA: GGGAGUUCUACAGUCCGACGAUCCACAUCGCUGAGCUGCCAAUAAUUAUCAGGGAGGCCCAUUCGCUUGUAUUCUUCACGGAGGUCAACCAGCAACCAGCCCUGCUCCCGUUCUUCCUUAUCCAGCUUGGGGUUGAAGGAAAACAACAGAGGAUUGAGCAUCA
B9: chrX:117043865:117043866:-_ENSG00000003096_ENST00000371882|hu_hu|motif|central (ssRNA)
RNA: GGGAGUUCUACAGUCCGACGAUCGCGAAGCCAACGACAGGUAGCCUUAAAGAGCUCAAGUUCAGUACAGUGCUUAAGGCGGUUACUGGAAAGCACGAAGGCAAGACGCUCAAAAGGGAGUUUCAAGAACUCCCCUGUGCUCAGCAACAGAGGAUUGAGCAUCA
B10: chr15:41871108:41871109:+_ENSG00000092445_ENST00000263798|hu_hu|FALSE|FALSE (ssRNA)
RNA: GGGAGUUCUACAGUCCGACGAUCUCCUCUUGCUGGCUCGGCACGCUGCCUUUGGAAGAGGGGCACCUGAUAGGCUGGGUACUCCAGCAUGCCUUUGUGUGACCCGGUCAGCUGCAGGGAAGCAUGCUCCCCUCAACUUCUCCUCAACAGAGGAUUGAGCAUCA
B11: 135111022_135113256_79_3pUTR_ENSMUSG00000030795_ENSMUST00000077609|mouse|control|control (ssRNA)
RNA: GGGAGUUCUACAGUCCGACGAUCCAGGCUGGGUAGGAUAGGCCCCGUAGCUUUGAGUUGCUUGUUGGGUAUAGUCGUUUGAAGCCAUGUCCGCGCACGCGCGCAGCGCAGGCCGCCAAGCAACAAAGUUCCAGACGACCGCGACAACAGAGGAUUGAGCAUCA
B12: chr5:92853364:92853365:-_ENSMUSG00000034826_ENSMUST00000038514|mus_hu|FALSE|FALSE (ssRNA)
RNA: GGGAGUUCUACAGUCCGACGAUCAUUCUGUAAAAGCUGUUUGAUCUGUGCAGGAGAAAGUUCUGUUCUAGUCAUAGAAAGGGUUACACCAAGUUGCUGCAAUUGUGUUUUUAUAUUGGCUUGUUCAAAAUGGGCAUAUAGCGUCAACAGAGGAUUGAGCAUCA
B13: chr4:144460044:144460045:+_ENSG00000153147_ENST00000283131|hu_mus|FALSE|FALSE (ssRNA)
RNA: GGGAGUUCUACAGUCCGACGAUCACGGUCCAUAGCCUGAAGAUCAACUUGCGGAUUCCAAUCUGAGUCAUAUAAAAUGACUACAUCAGCAGUUGCAAGAUUGAUGCCCAGACCACCAGCACGUGUGCUUAGCAUAAAUACAAACAACAGAGGAUUGAGCAUCA
B14: chr5:4754414:4754415:-_ENSMUSG00000044674_ENSMUST00000054294|mus_hu|FALSE|FALSE (ssRNA)
RNA: GGGAGUUCUACAGUCCGACGAUCGUAAUAAAAUGUUGAAAGUGUACAACUUUUACAUUUUAAAGUUUCUGAUAUAUGUCUAGUUAUUUGAUUAAAAAUAAGAAAAUAGCACUUCAUUUUGAGGAAGUCCAUGACACUGAAAUACAACAGAGGAUUGAGCAUCA
B15: 134750436_134758669_1075_CDS_ENSMUSG00000060261_ENSMUST00000173341|mouse|control|control (ssRNA)
RNA: GGGAGUUCUACAGUCCGACGAUCCUCGUUGCCUUCUGAGGAGUGAUGGCUUCCUUGAAUGUUAUACUGAUAGUAAUCAGGGUCUUCUGACUCCUCCUUCACUGUCACAGCGGCCAUUUCCAGAGAAAUGCCAGAAUCUUCUGUCAACAGAGGAUUGAGCAUCA
B16: chr14:22612544:22612545:+_ENSMUSG00000021770_ENSMUST00000119430|mus_hu|motif|central (ssRNA)
RNA: GGGAGUUCUACAGUCCGACGAUCAAGCCAGGCAUCUAAGAACAACCUAGGGGGAGAACGCAAAGUUACUCAUUUUCAACAACGGUUAUAUAUUUAAUCACAAAUUCAUUAGAAAGAUAGUAUUCAUCCAAUUAGUCUUUUCAUCAACAGAGGAUUGAGCAUCA
B17: 160585562_160585682_211_3pUTR_ENSG00000136536_ENST00000259050|human|control|control (ssRNA)
RNA: GGGAGUUCUACAGUCCGACGAUCUAUUCAGAAUCCAAUCUAAAUGAAGAGUCUCUUGAGUGAUAGGUAUCAUUUAAACUACUUCCUCUGCUUCCAGACAUCAUCCUAGCACUUAAGGAGCUGGAAGGUUGAACAGAAAUUCUUCAACAGAGGAUUGAGCAUCA
B18: chr5:128440902:128440903:+_ENSG00000066583_ENST00000173527|hu_mus|hu_hu_hu_mus_True|1_18 (ssRNA)
RNA: GGGAGUUCUACAGUCCGACGAUCUUGAACGGUGCUGCCAAGUCCUUUGGGGUAUUGUUCCGUUAUGAUAACUGGAAUCCCUAAGAUCCGAGCUCCUUGCAACAGUCUCUGUCCCACGCUAAUAAUAUCCCCAAAGUACUUGAUCAACAGAGGAUUGAGCAUCA
B19: chr5:128440902:128440903:+_ENSG00000066583_ENST00000173527|hu_mus|hu_hu_hu_mus_True|48_68 (ssRNA)
RNA: B18 RNA with U72A, A90G, U93C, G117A, A123G, A126G, C138U
B20: chr7:151048522:151048523:+_ENSG00000013374_ENST00000566856|hu_mus|hu_hu_hu_mus_True|78_108 (ssRNA)
RNA: GGGAGUUCUACAGUCCGACGAUCCUGCUUCUUAUUUAUUACGAUCUUGAUGUAAUUUUCUUGAAGUCCGAAAGUUUCAGCUAUUUGACACCUCAGGUCUCUACCAGUGACAUGCAAGCGGGUCUCCAACAAGCUUUUCUUAUCCAACAGAGGAUUGAGCAUCA
B21: chr13:100191535:100191536:-_ENSMUSG00000052727_ENSMUST00000064762|mus_hu|motif|central (ssRNA)
RNA: GGGAGUUCUACAGUCCGACGAUCAGAGGGGAUAUUGCACACAAAUAUCAUAAAAGCACUACAUAUUACUUUCACUGGAAACGGAUUUUCUACAUUAGAUAUGACUGGAUAGGAUAGAAGUGAUGCAGGAUUAUAAGACAUAAUCAACAGAGGAUUGAGCAUCA
B22: chr4:115894766:115894767:+_ENSMUSG00000028698_ENSMUST00000030464|mus_hu|mus_mus_mus_hu_True|28_28 (ssRNA)
RNA: GGGAGUUCUACAGUCCGACGAUCUUCCACACGGAAAUGUACUUCGGGUUUUCCAACGGCCAGUACCAGUCCGGCCAAACUACCCGAACAGGGUCCUCCCCCUCUCUUCUCUCCUCCACAACAAAAUGCCCCCGAACUUUCAAGCAACAGAGGAUUGAGCAUCA

target: T1, UNK ZnF1-3; experiment: nsRBNS (natural sequence RNA bind-n-seq); RBNS binding buffer (assumed for nsRBNS): 25 mM Tris pH 7.5, 150 mM KCl, 3 mM MgCl2, 0.01% Triton X-100, 500 ug/ml BSA, 20 U/ml SUPERase-In, 4 C; UNK is unkempt and MSI1 is Musashi-1; names of the RNAs are library labels; protein concentration not given here; high values mean tight binding

Binder	binding signal [enrichment R]
B1	1.76
B2	1.38
B3	0.267
B4	0.622
B5	0.319
B6	0.671
B7	0.724
B8	1.48
B9	0.856
B10	0.632
B11	0.627
B12	1.23
B13	0.907
B14	0.629
B15	0.714
B16	1.81
B17	0.98
B18	0.526
B19	0.832
B20	0.768
B21	1.42
B22	1.12

Source: paper PMC12136788
